Assay results taken from the supplement of paper PMC8047034.
Counter-ions that a name gives are not always drawn. This is one part of the list. Many values rest on one well or one pass, so single values are uncertain.

Each molecule was assayed on OVCAR4 (assay: log2 surviving fraction (library drug vs vehicle, or drug + carboplatin vs carboplatin alone; relative to plate median); ovarian cancer lines: OVCAR4 is platinum-sensitive and Ov4Carbo platinum-resistant; higher = more cell survival). Conditions: library drug concentration 10 µM; 7 days; carboplatin co-treatment 0 µM.

SMILES | log2 surviving fraction
CCOC(=O)C(C)(C)Oc1ccc(Cl)cc1 [Clofibrate (Atromid-S)] | 0.152
C[C@@H]1CCN(C(=O)CC#N)C[C@@H]1N(C)c1ncnc2[nH]ccc12 | 0.568
CCC[C@@H]1C[C@@H](C(=O)N[C@@H]([C@H]2O[C@H](SC)[C@H](O)[C@@H](O)[C@H]2O)[C@H](C)Cl)N(C)C1 [Clindamycin hydrochloride (Dalacin)] | 0.825
CO[C@H]1C(=O)[C@]2(C)[C@@H](OC)C[C@H]3OC[C@@]3(OC(C)=O)[C@H]2[C@H](OC(=O)c2ccccc2)[C@]2(O)C[C@H](OC(=O)[C@H](O)[C@@H](NC(=O)OC(C)(C)C)c3ccccc3)C(C)=C1C2(C)C [Cabazitaxel (Jevtana)] | -6.19
CN(CCOc1ccc(NS(C)(=O)=O)cc1)CCc1ccc(NS(C)(=O)=O)cc1 [Dofetilide (Tikosyn)] | 0.974
CC(C)[C@H]1CC[C@H](C(=O)N[C@H](Cc2ccccc2)C(=O)O)CC1 [Nateglinide (Starlix)] | 0.0273
Nc1c(CC(=O)O)cccc1C(=O)c1ccccc1 [Amfenac Sodium (monohydrate)] | -0.371
c1ccc2nc(N3CCNCC3)ccc2c1 [Quipazine Maleate] | -0.297
OC(c1ccccc1)(c1ccccc1)C1CCNCC1 [Azacyclonol] | -0.691
C#C[C@]1(O)CC[C@H]2[C@@H]3CCC4=CC(=O)CC[C@@H]4[C@H]3CC[C@@]21C [norethindrone] | 0.0755
CC[C@H]1OC(=O)[C@H](C)[C@@H](O[C@H]2C[C@@](C)(OC)[C@@H](O)[C@H](C)O2)[C@H](C)[C@@H](O[C@@H]2O[C@H](C)C[C@H](N(C)C)[C@H]2O)[C@](C)(OC)C[C@@H](C)C(=O)[C@H](C)[C@@H](O)[C@]1(C)O [Clarithromycin (Biaxin, Klacid)] | 0.782
CCCCC(=O)O[C@]1(C(=O)CO)[C@@H](C)C[C@H]2[C@@H]3CCC4=CC(=O)C=C[C@]4(C)[C@@]3(F)[C@@H](O)C[C@@]21C [Betamethasone valerate (Betnovate)] | 0.556
CN(C)CCCSC(=N)N [Dimaprit 2HCl] | -0.14
CC(NCCc1ccc(O)cc1)C(O)c1ccc(O)cc1 (stereo not given) [Ritodrine hydrochloride (Yutopar)] | -0.39
c1ccc2c(CC3=NCCN3)cccc2c1 [Naphazoline hydrochloride (Naphcon)] | -0.395
COCCCC/C(=N\OCCN)c1ccc(C(F)(F)F)cc1 [Fluvoxamine maleate] | -2.48
CN(C)C(=O)C(CCN1CCC(O)(c2ccc(Cl)cc2)CC1)(c1ccccc1)c1ccccc1 [Loperamide hydrochloride] | -5.78
CN(C)CCc1c[nH]c2ccc(Cn3cncn3)cc12 [Rizatriptan Benzoate (Maxalt)] | 1.09
CC(=O)Oc1ccccc1C(=O)Nc1ncc([N+](=O)[O-])s1 [Nitazoxanide (Alinia, Annita)] | -0.524
CC(C)c1c(C(=O)Nc2ccccc2)c(-c2ccccc2)c(-c2ccc(F)cc2)n1CC[C@@H](O)C[C@@H](O)CC(=O)O [Atorvastatin calcium (Lipitor)] | -3.03
O=C(CCCN1CC=C(n2c(=O)[nH]c3ccccc32)CC1)c1ccc(F)cc1 [Droperidol] | 0.329
CCn1cc(C(=O)O)c(=O)c2cc(F)c(N3CCNC(C)C3)c(F)c21 (stereo not given) [Lomefloxacin hydrochloride (Maxaquin)] | -0.602
CNC(=O)Oc1ccc2c(c1)[C@]1(C)CCN(C)[C@@H]1N2C [Physostigmine Hemisulfate Salt] | -0.629
CCCC(CCC)C(=O)O[C@H]1C[C@H]2CC[C@@H](C1)[N+]2(C)C [Anisotropine Methylbromide] | 0.678
CC(CN(C)C)CN1c2ccccc2CCc2ccccc21 (stereo not given) [Trimipramine Maleate] | -1.41
Clc1ccc(CCC(Cn2ccnc2)Sc2c(Cl)cccc2Cl)cc1 (stereo not given) [Butoconazole nitrate] | -1.77
Cl.N=C(N)NCCC[C@H](N)C(=O)O [L-Arginine HCl] | 0.331
CN1CCN(c2cc3c(cc2F)c(=O)c(C(=O)O)cn3-c2ccc(F)cc2)CC1 [Difloxacin HCl] | -2.56
Cn1c([N+](=O)[O-])cnc1COC(N)=O [Ronidazole] | 0.106
O=c1ccn([C@@H]2O[C@H](CO)[C@@H](O)[C@H]2O)c(=O)[nH]1 [Uridine] | -0.831
